Laboratory results taken from the supplement of paper PMC8728848.
The list shows a part of the results.

What was measured:
Assay in all cases: glycan array binding signal (z-score within array); higher = stronger binding
Details in all cases: glycan notation: IUPAC condensed, linker removed
[1] = target: Fuc(a1-2)Gal
How it was run: (§1)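 Glycan array data were curated from 3228 arrays in the Consortium for Functional Glycomics database and kept only where the protein sequence was available. Glycan names were converted to IUPAC-condensed notation, and columns mapping to the same glycan were averaged. The binding signal is a within-array Z-score, averaged across arrays of the same protein sequence at different concentrations or buffers and across linkers. Negative Z-scores can be read as non-binding.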

[2] = target: Fuc(a1-2)Gal(b1-3)GalNAc
How it was run: as §1

[3] = target: Fuc(a1-2)Gal(b1-3)GalNAc(b1-3)Gal
How it was run: as §1

[4] = target: Fuc(a1-2)Gal(b1-3)GalNAc(b1-3)Gal(a1-4)Gal(b1-4)Glc
How it was run: as §1

[5] = target: Fuc(a1-2)Gal(b1-3)GalNAc(b1-4)[Neu5Ac(a2-3)]Gal(b1-4)Glc
How it was run: as §1

[6] = target: Fuc(a1-2)Gal(b1-3)GlcNAc
How it was run: as §1

[7] = target: Fuc(a1-2)Gal(b1-3)GlcNAc(b1-3)Gal(b1-4)Glc
How it was run: as §1

[8] = target: Fuc(a1-2)Gal(b1-3)[Fuc(a1-4)]GlcNAc
How it was run: as §1

[9] = target: Fuc(a1-2)Gal(b1-4)Glc
How it was run: as §1

[10] = target: Fuc(a1-2)Gal(b1-4)GlcNAc
How it was run: as §1

[11] = target: Fuc(a1-2)Gal(b1-4)GlcNAc(b1-3)Gal(b1-4)GlcNAc
How it was run: as §1

[12] = target: Fuc(a1-2)Gal(b1-4)GlcNAc(b1-3)Gal(b1-4)GlcNAc(b1-3)Gal(b1-4)GlcNAc
How it was run: as §1

[13] = target: Fuc(a1-2)Gal(b1-4)[Fuc(a1-3)]GlcNAc
How it was run: as §1

[14] = target: Fuc(a1-2)Gal(b1-4)[Fuc(a1-3)]GlcNAc(b1-3)Gal(b1-4)[Fuc(a1-3)]GlcNAc
How it was run: as §1

[15] = target: Fuc(a1-2)Gal(b1-4)[Fuc(a1-3)]GlcNAc(b1-3)Gal(b1-4)[Fuc(a1-3)]GlcNAc(b1-3)Gal(b1-4)[Fuc(a1-3)]GlcNAc
How it was run: as §1

[16] = target: Fuc(a1-2)GlcNAc
How it was run: as §1

[17] = target: Fuc(a1-2)[Gal(a1-3)]Gal
How it was run: as §1

[18] = target: Fuc(a1-2)[Gal(a1-3)]Gal(b1-3)GlcNAc
How it was run: as §1

[19] = target: Fuc(a1-2)[Gal(a1-3)]Gal(b1-4)Glc
How it was run: as §1

[20] = target: Fuc(a1-2)[Gal(a1-3)]Gal(b1-4)GlcNAc
How it was run: as §1

[21] = target: Fuc(a1-2)[Gal(a1-3)]Gal(b1-4)[Fuc(a1-3)]GlcNAc
How it was run: as §1

[22] = target: Fuc(a1-2)[Gal(a1-4)]Gal(b1-4)GlcNAc
How it was run: as §1

[23] = target: Fuc(a1-2)[GalNAc(a1-3)]Gal
How it was run: as §1

[24] = target: Fuc(a1-2)[GalNAc(a1-3)]Gal(b1-3)GlcNAc
How it was run: as §1

[25] = target: Fuc(a1-2)[GalNAc(a1-3)]Gal(b1-4)Glc
How it was run: as §1

[26] = target: Fuc(a1-2)[GalNAc(a1-3)]Gal(b1-4)GlcNAc
How it was run: as §1

[27] = target: Fuc(a1-2)[GalNAc(a1-3)]Gal(b1-4)[Fuc(a1-3)]GlcNAc
How it was run: as §1

[28] = target: Fuc(a1-2)[GalNAc(a1-4)]Gal(b1-4)GlcNAc
How it was run: as §1

[29] = target: Fuc(a1-2)[GalNAc(b1-3)]Gal
How it was run: as §1

[30] = target: Fuc(a1-3)GlcNAc
How it was run: as §1

B1: PMA (Polygonatum multiflorum) (protein)
chain: LLTTTLFVFISSTRSLASTNVLYSDVGNAILNAKESLIYGDYRLDMQSDCNLVLYNKAAPYWASGTRWSWGGNCHLNLQSNGELVMYAYLGRTRIAIWRSGIISATGSYALVLKYDGALHVHGPSLWSTNATGPTTPTTASWSIDSTLWSGDVATIGPTIANGDYKLELLDTCNLTLSNTKTGQVLWYTNTTDWVHDCYVNIEGNGELKIKYLGGATLWSNKVGAGYTNNYVLGLRPDGKLDTYNAPIWSPTIGPGVHVAPAVYNASSNAVAAEGNGEKIAMVTGRAKNST
[1]
  glycan array binding signal (z-score): -0.247
[2]
  glycan array binding signal (z-score): -0.246
[3]
  glycan array binding signal (z-score): -0.24
[4]
  glycan array binding signal (z-score): -0.24
[5]
  glycan array binding signal (z-score): -0.237
[6]
  glycan array binding signal (z-score): -0.249
[7]
  glycan array binding signal (z-score): -0.225
[8]
  glycan array binding signal (z-score): -0.265
[9]
  glycan array binding signal (z-score): -0.26
[10]
  glycan array binding signal (z-score): -0.236
[11]
  glycan array binding signal (z-score): -0.247
[12]
  glycan array binding signal (z-score): -0.254
[13]
  glycan array binding signal (z-score): -0.232
[14]
  glycan array binding signal (z-score): -0.223
[15]
  glycan array binding signal (z-score): -0.235
[16]
  glycan array binding signal (z-score): -0.239
[17]
  glycan array binding signal (z-score): -0.253
[18]
  glycan array binding signal (z-score): -0.256
[19]
  glycan array binding signal (z-score): -0.26
[20]
  glycan array binding signal (z-score): -0.247
[21]
  glycan array binding signal (z-score): -0.233
[22]
  glycan array binding signal (z-score): -0.236
[23]
  glycan array binding signal (z-score): -0.24
[24]
  glycan array binding signal (z-score): -0.246
[25]
  glycan array binding signal (z-score): -0.249
[26]
  glycan array binding signal (z-score): -0.243
[27]
  glycan array binding signal (z-score): -0.236
[28]
  glycan array binding signal (z-score): -0.24
[29]
  glycan array binding signal (z-score): 0.34
[30]
  glycan array binding signal (z-score): -0.218
